# Over roughly 18,000 sequences, “TetR repression strength (sort-seq, GFP reporter)” has its median near 0.23; the highest 2% begin near 0.68. The list shows a part of the results.
# Molecular target: TetR (class B, Tn10) (UniProt P04483)
# Assay: TetR repression strength (sort-seq, GFP reporter) (relative to tetO2 = 1); higher = stronger repression
# Conditions: E. coli
# Outline: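 Escherichia coli SIG10-MAX cells carried a low-copy plasmid library in which eight operator positions were randomized between a constitutive promoter and sfGFP, and TetR was expressed constitutively. After 5 h of growth at 37 °C in LB with 50 µg/mL chloramphenicol, 10^6 cells were FACS-sorted into 13 fluorescence bins, and each bin was Illumina-sequenced. Repression strength was the top bin index plus one minus the read-weighted mean bin, divided by the value for the unaltered operator. Across three independent transformations, only library members with ≥30 reads in every replicate and a CV ≤0.5 were averaged.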
# Sequence of UniProt P04483 (P04483 whole entry): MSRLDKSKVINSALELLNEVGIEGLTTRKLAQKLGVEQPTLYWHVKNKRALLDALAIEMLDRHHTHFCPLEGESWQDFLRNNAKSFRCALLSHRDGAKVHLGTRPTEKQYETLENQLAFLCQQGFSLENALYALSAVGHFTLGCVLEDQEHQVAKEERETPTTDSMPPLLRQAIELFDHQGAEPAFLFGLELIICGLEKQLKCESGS
row,Sequence,TetR repression strength
1,TCCCGTTTAGTGTTGGAGA,0.191
2,TCCCGAGTAGTCTTCGAGA,0.165
3,TCCCAAAAAGTTGCGGAGA,0.456
4,TCCCATCAAGTGGTAGAGA,0.342
5,TCCCTAGCAGTGGCCGAGA,0.372
6,TCCCGGTCAGTTGTGGAGA,0.265
7,TCCCCTCTAGTTGTCGAGA,0.21
8,TCCCAGCCAGTTTTGGAGA,0.298
9,TCCCTTAAAGTCTGGGAGA,0.271
10,TCCCGGTGAGTCCATGAGA,0.244
11,TCCCTGACAGTCTAAGAGA,0.494
12,TCCCTTTCAGTGATTGAGA,0.713
13,TCCCCGGGAGTGTACGAGA,0.164
14,TCCCCGCTAGTGGGCGAGA,0.175
15,TCCCCAACAGTGTTTGAGA,0.311
16,TCCCCTATAGTCCGAGAGA,0.292
17,TCCCGTTAAGTGGGCGAGA,0.144
18,TCCCGATGAGTAAGTGAGA,0.37
19,TCCCCTGGAGTACAGGAGA,0.326
20,TCCCGCTTAGTTGTCGAGA,0.287
21,TCCCGACGAGTAGGGGAGA,0.1
22,TCCCGTTGAGTCTGGGAGA,0.149
23,TCCCCTCGAGTTTTGGAGA,0.188
24,TCCCGGGTAGTGCGCGAGA,0.311
25,TCCCAATGAGTGTGCGAGA,0.115
26,TCCCTTGTAGTTGAAGAGA,0.148

row,Sequence,TetR repression strength
1,TCCCCAGTAGTGGGGGAGA,0.14
2,TCCCATACAGTACGGGAGA,0.266
3,TCCCATTCAGTGTGAGAGA,0.518
4,TCCCCGAGAGTGATAGAGA,0.3
5,TCCCCAATAGTTTATGAGA,0.311
6,TCCCAGTTAGTCGGCGAGA,0.388
7,TCCCTAAGAGTACGGGAGA,0.231
8,TCCCTCGGAGTGATGGAGA,0.159
9,TCCCGCAAAGTTTGCGAGA,0.219
10,TCCCTGTGAGTAATTGAGA,0.17
11,TCCCAAACAGTGGGCGAGA,0.41
12,TCCCCTTGAGTGGCGGAGA,0.129
13,TCCCCGGCAGTCCGCGAGA,0.0912
14,TCCCGCACAGTATCGGAGA,0.269
15,TCCCAATCAGTTTAAGAGA,0.368
16,TCCCCCACAGTGCTCGAGA,0.387
17,TCCCCTAGAGTTCGTGAGA,0.161
18,TCCCACGCAGTCTGGGAGA,0.118
19,TCCCTGTTAGTCTTAGAGA,0.154
20,TCCCTTTGAGTGTGAGAGA,0.192
21,TCCCTCGTAGTGGCTGAGA,0.378
22,TCCCGCTTAGTGGCGGAGA,0.177
23,TCCCTGGCAGTGTTTGAGA,0.253
24,TCCCGGATAGTAGCGGAGA,0.329
25,TCCCGGTAAGTGTTGGAGA,0.172
26,TCCCCTGTAGTCGGCGAGA,0.283

row,Sequence,TetR repression strength
1,TCCCAATGAGTGGTGGAGA,0.212
2,TCCCTCATAGTCGGAGAGA,0.257
3,TCCCAGGTAGTGCGTGAGA,0.294
4,TCCCGGGTAGTGTGGGAGA,0.214
5,TCCCGTGCAGTAACGGAGA,0.114
6,TCCCCAGCAGTGAGTGAGA,0.167
7,TCCCCGAGAGTACCGGAGA,0.159
8,TCCCCGGAAGTGACAGAGA,0.26
9,TCCCGATGAGTAATTGAGA,0.222
10,TCCCAGGGAGTCGCAGAGA,0.511
11,TCCCTGTGAGTACAGGAGA,0.189
12,TCCCATATAGTACTCGAGA,0.207
13,TCCCGTCGAGTCGGAGAGA,0.327
14,TCCCGACCAGTCGGGGAGA,0.112
15,TCCCGGTGAGTGTTAGAGA,0.453
16,TCCCCTAAAGTGGGGGAGA,0.325
17,TCCCTAGTAGTACGAGAGA,1.22
18,TCCCACACAGTGATTGAGA,0.379
19,TCCCAAGCAGTCTTTGAGA,0.375
20,TCCCAGCGAGTGGCAGAGA,0.585
21,TCCCTCAAAGTGGGAGAGA,0.0218
22,TCCCGCACAGTCTAAGAGA,0.246
23,TCCCTGAGAGTCATCGAGA,0.104
24,TCCCGAAGAGTAGGAGAGA,0.153
25,TCCCTTACAGTGGTGGAGA,0.233
26,TCCCTAGCAGTAGACGAGA,0.409

row,Sequence,TetR repression strength
1,TCCCGCGAAGTAAATGAGA,0.208
2,TCCCATCAAGTGTCCGAGA,0.424
3,TCCCGGAGAGTGGCAGAGA,0.169
4,TCCCAGTAAGTGCCTGAGA,0.124
5,TCCCTCGAAGTTTTGGAGA,0.205
6,TCCCAGAGAGTGTGTGAGA,0.257
7,TCCCTTAAAGTGGACGAGA,0.225
8,TCCCCTGGAGTATAGGAGA,0.221
9,TCCCTGTTAGTAGACGAGA,0.194
10,TCCCCGATAGTGTTGGAGA,0.247
11,TCCCCGCTAGTAGTCGAGA,0.127
12,TCCCTCGGAGTGCTTGAGA,0.224
13,TCCCAGGGAGTGCCGGAGA,0.19
14,TCCCGTAGAGTTGACGAGA,0.0976
15,TCCCAGTCAGTGGGAGAGA,0.296
16,TCCCAGCTAGTGAGAGAGA,0.36
17,TCCCTTCCAGTTCTGGAGA,1.04
18,TCCCAAGCAGTTGCAGAGA,0.178
19,TCCCGATGAGTCTTTGAGA,0.0786
20,TCCCGGCTAGTCGCCGAGA,0.177
21,TCCCGGGGAGTATGTGAGA,0.455
22,TCCCGATTAGTTTTTGAGA,0.493
23,TCCCGTTGAGTCCTCGAGA,0.287
24,TCCCGACAAGTGTTGGAGA,0.292
25,TCCCCCCAAGTGCTGGAGA,0.315
26,TCCCGCGTAGTGGGGGAGA,0.203

row,Sequence,TetR repression strength
1,TCCCGTCGAGTTATCGAGA,0.284
2,TCCCACTTAGTAGGTGAGA,0.147
3,TCCCACCGAGTACACGAGA,0.315
4,TCCCCAGAAGTGGCAGAGA,0.263
5,TCCCTCTGAGTGCGAGAGA,0.281
6,TCCCTCGTAGTCCAGGAGA,0.207
7,TCCCAGTGAGTGGTTGAGA,0.188
8,TCCCTCTAAGTGCGAGAGA,0.479
9,TCCCATGGAGTTTTAGAGA,0.281
10,TCCCTGCCAGTCGTAGAGA,0.311
11,TCCCGTAGAGTAAAGGAGA,0.196
12,TCCCGTTTAGTTGGGGAGA,0.314
13,TCCCATCTAGTATCTGAGA,0.199
14,TCCCTACAAGTGAGGGAGA,0.0864
15,TCCCCAATAGTGGGTGAGA,0.279
16,TCCCAGGAAGTTCGAGAGA,0.22
17,TCCCTGATAGTAGGTGAGA,0.197
18,TCCCGCTGAGTTTATGAGA,0.411
19,TCCCTATTAGTTCTAGAGA,0.419
20,TCCCTGAAAGTTGCAGAGA,0.174
21,TCCCGTGCAGTGAGGGAGA,0.278
22,TCCCTGTAAGTTCACGAGA,0.218
23,TCCCGGGGAGTGCCCGAGA,0.263
24,TCCCAGCGAGTATGAGAGA,0.0754
25,TCCCTCAAAGTACAGGAGA,0.228
26,TCCCCAACAGTATCTGAGA,0.355

row,Sequence,TetR repression strength
1,TCCCATTCAGTTGAAGAGA,0.171
2,TCCCGGGGAGTGCAAGAGA,0.334
3,TCCCCAGCAGTGCGTGAGA,0.0161
4,TCCCTGTTAGTGGGCGAGA,0.301
5,TCCCCTCAAGTCCAGGAGA,0.159
6,TCCCTATCAGTAGAAGAGA,0.457
7,TCCCAGGTAGTGTCGGAGA,0.195
8,TCCCGGGTAGTACAAGAGA,0.335
9,TCCCGTTTAGTCACAGAGA,0.364
10,TCCCTACCAGTGTTGGAGA,0.37
11,TCCCGCTTAGTGGCAGAGA,0.227
12,TCCCGTTTAGTGAATGAGA,0.238
13,TCCCGCACAGTGGGAGAGA,0.157
14,TCCCGGTTAGTTGGAGAGA,0.158
15,TCCCAGTGAGTTAAGGAGA,0.151
16,TCCCTTGAAGTGCGCGAGA,0.218
17,TCCCATGCAGTCTCGGAGA,0.0532
18,TCCCGTAAAGTGCCGGAGA,0.307
19,TCCCCTTGAGTTTTTGAGA,0.278
20,TCCCAGGGAGTGTGCGAGA,0.196
21,TCCCGGTCAGTGCAGGAGA,0.531
22,TCCCGTAGAGTACTTGAGA,0.0106
23,TCCCGGTAAGTGGAGGAGA,0.211
24,TCCCGAAAAGTGAGAGAGA,0.106
25,TCCCCCCTAGTTGTGGAGA,0.213
26,TCCCGAGAAGTGATAGAGA,0.425

row,Sequence,TetR repression strength
1,TCCCGCCGAGTTAAGGAGA,0.19
2,TCCCGGGGAGTTCGAGAGA,0.243
3,TCCCAAAAAGTACCAGAGA,0.319
4,TCCCGTTAAGTTTTGGAGA,0.119
5,TCCCAACTAGTTTTAGAGA,0.508
6,TCCCAACGAGTACTTGAGA,0.0467
7,TCCCTTGCAGTTCTGGAGA,0.482
8,TCCCTCCGAGTGACTGAGA,0.365
9,TCCCTGGAAGTAGTGGAGA,0.139
10,TCCCTGGCAGTGGAAGAGA,0.255
11,TCCCAAGTAGTCCGGGAGA,0.258
12,TCCCTTGTAGTGGACGAGA,0.354
13,TCCCGGAGAGTACGGGAGA,0.264
14,TCCCTCAGAGTAGTGGAGA,0.187
15,TCCCCAAAAGTCCTAGAGA,0.524
16,TCCCTAGTAGTAAGTGAGA,0.237
17,TCCCAAGAAGTGCGTGAGA,0.0863
18,TCCCGGCGAGTACCGGAGA,0.196
19,TCCCGTGTAGTCCGAGAGA,0.296
20,TCCCAGCAAGTGTAGGAGA,0.0283
21,TCCCAACAAGTTTATGAGA,0.207
22,TCCCGCTGAGTGTTTGAGA,0.234
23,TCCCTGACAGTGATGGAGA,0.207
24,TCCCGATGAGTCATGGAGA,0.381
25,TCCCGTTGAGTGTTTGAGA,0.13
26,TCCCATTCAGTTGGTGAGA,0.0793

row,Sequence,TetR repression strength
1,TCCCGATCAGTCTTCGAGA,0.307
2,TCCCTGATAGTGATGGAGA,0.117
3,TCCCCATGAGTCGATGAGA,0.498
4,TCCCGCGGAGTGGACGAGA,0.229
5,TCCCGACGAGTAAAGGAGA,0.366
6,TCCCTCAAAGTTGGCGAGA,0.0844
7,TCCCGACCAGTGCGGGAGA,0.222
8,TCCCAGCTAGTGGGGGAGA,0.291
9,TCCCGCGCAGTGTAAGAGA,0.222
10,TCCCTGTGAGTAGCTGAGA,0.195
11,TCCCGGTGAGTGTCCGAGA,0.136
12,TCCCTGGCAGTACGTGAGA,0.167
13,TCCCATTCAGTGGATGAGA,0.351
14,TCCCGGGCAGTCAACGAGA,0.163
15,TCCCGGAGAGTGGGCGAGA,0.161
16,TCCCCCACAGTAAGTGAGA,0.126
17,TCCCGTGGAGTGGGAGAGA,0.184
18,TCCCCAGGAGTTTGCGAGA,0.22
19,TCCCGGAAAGTGTGAGAGA,0.13
20,TCCCCAAAAGTGTTAGAGA,0.219
21,TCCCGTAGAGTTCCAGAGA,0.389
22,TCCCTTTGAGTTTCCGAGA,0.333

# Source: a collection of fitness landscapes (doi:10.1038/s41467-024-54723-y)
